{"source": "PubChem BioAssay AID624296", "about": "(National Center for Advancing Translational Sciences (NCATS), 2012)", "note": "Out of some 350,000 compounds screened, about 9,900 (2.8%) were called active. The inconclusive results got no clear call from the source; some entries with a clear call stand among them for comparison. Calls follow the shape of the dose curve; as a rule, active = well fitted activation curve with a large enough effect; inconclusive = small, poorly fitted or top-dose-only effect; inactive = no such curve, though single readings can be large or run the other way. Potencies of inconclusive entries are left out as doubtful fits. Potency is read from the fitted curve at half-maximal effect; tags tell the direction and shape of the fitted curve."}
{"test": "A quantitative high throughput screen for small molecules that induce DNA re-replication in MCF 10a normal breast cells; also: nearly all actives have a fitted effect of over 50% in size.", "conditions": "MCF 10A DNA re-replication, Hoechst nuclear intensity, 48 h; series mostly up to 46.1 µM"}
{"molecule": "COc1ccc(CN(CCC(C)C)S(=O)(=O)c2ccccc2Br)c(OC)c1", "Potency": "inconclusive [activator, full curve, poor fit]"}
{"molecule": "Cc1cccc(CC2S/C(=N/c3ccccn3)NC2=O)c1", "note": "(stereo not given)", "Potency": "inconclusive [activator, single point]"}
{"molecule": "CCC(/C=C1\\Sc2ccc(OC)cc2N1CCO)=C\\c1sc2ccc(OC)cc2[n+]1CCO", "Potency": "inconclusive [activator, single point]"}
{"molecule": "Cc1nc(-c2ccc(F)cc2)c(CC(=O)N2CCN(S(=O)(=O)c3ccccc3Br)CC2)s1", "Potency": "inactive"}
{"molecule": "COc1ccc(-c2cc(C(=O)Nc3ccccc3O)c3ccccc3n2)cc1", "Potency": "inconclusive [activator, single point]"}
{"molecule": "c1ccc(-n2c(SCc3nc(-c4cccs4)no3)nnc2-c2ccco2)cc1", "Potency": "inactive"}
{"molecule": "COc1cc(-c2nc(C(=O)NC3CCN(Cc4ccccc4)CC3)cc3c2[nH]c2ccccc23)cc(OC)c1OC", "Potency": "inconclusive [activator, full curve, poor fit]"}
{"molecule": "COc1ccc(/C=N/Nc2cc(C)nc(N3CCOCC3)n2)cc1", "Potency": "inactive"}
{"molecule": "Cn1ncc2c(Nc3cccc(Cl)c3)nc(Nc3cccc(Cl)c3)nc21", "Potency": "active: 18.4 µM"}
{"molecule": "CCCCCCCCCCCCCCCC(O)C[N+](C)(C)CCO", "note": "(stereo not given)", "Potency": "inconclusive [activator, partial curve, poor fit]"}
{"molecule": "COc1ccc(Cc2ccc(OC)c(N)c2)cc1N", "Potency": "inconclusive [activator, single point]"}
{"molecule": "CCN(CCCn1c(=S)[nH]c2ccc(N3CCOCC3)cc2c1=O)c1ccccc1", "Potency": "active: 18.4 µM"}
{"molecule": "COC(=O)c1ccc(-n2c(C)ccc2-c2ccccc2)cc1", "Potency": "inconclusive [activator, partial curve, poor fit]"}
{"molecule": "COc1ccc(CNn2c(-c3cccs3)nc3ccccc3c2=O)cc1OC", "Potency": "inconclusive [activator, partial curve, poor fit]"}
{"molecule": "COc1cc([N+](=O)[O-])ccc1NC(=O)COC(=O)c1c[nH]c(=O)[nH]c1=O", "Potency": "inactive"}
{"molecule": "O=C(N/N=C/c1ccc(O)c([N+](=O)[O-])c1)C(O)(c1ccccc1)c1ccccc1", "Potency": "inactive"}
{"molecule": "Cc1cn(-c2ccccc2)c(C)c1/C=N\\Nc1nc(N2CCOCC2)nc(N2CCOCC2)n1", "Potency": "inactive"}
{"molecule": "O=C(COC(=O)C12CC3CC(CC(C3)C1)C2)NNC(=O)c1ccccc1", "Potency": "inconclusive [activator, single point]"}
{"molecule": "COc1ccccc1N(CC(=O)NC(C)(C)C)C(=O)C1CSC(=O)C1", "note": "(stereo not given)", "Potency": "inactive"}
{"molecule": "COc1ccc(NC(=O)Cc2c(F)c(F)c(F)c(F)c2F)cc1OC", "Potency": "inactive"}
{"molecule": "Cc1ccc2nc(SCC(=O)NCc3ccccc3)nc(=O)n2c1", "Potency": "inconclusive [activator, full curve, poor fit]"}
{"molecule": "COCCNC(=O)c1cc(-c2ccccc2C)nn1CC1CC(c2cccnc2)=NO1", "note": "(stereo not given)", "Potency": "inactive"}
{"molecule": "COc1ccc(OC)c(Nc2cc(C)nc3ccccc23)c1", "Potency": "inconclusive [activator, partial curve, poor fit]"}
{"molecule": "COc1ccc(Oc2ccc3c(C(F)(F)F)cc(C(F)(F)F)nc3n2)cc1", "Potency": "inactive"}
{"molecule": "COc1ccc(-c2csc(NC(CO)c3nc4ccccc4n3Cc3ccc(C)cc3)n2)cc1", "note": "(stereo not given)", "Potency": "inconclusive [activator, single point]"}
{"molecule": "O=C(CSc1n[nH]c(-c2cccs2)n1)N1CCN(S(=O)(=O)c2ccc3ccccc3c2)CC1", "Potency": "inactive"}
{"molecule": "CCCc1cc(C(=O)N2CCN(S(=O)(=O)c3ccc(OC)c(OC)c3)CC2)cs1", "Potency": "inconclusive [activator, single point]"}
{"molecule": "O=c1/c(=C\\c2cccc(O)c2)sc2nc(-c3ccccc3)c(-c3ccccc3)n12", "Potency": "active: 4.61 µM"}
{"molecule": "COc1ccc(NC(=O)Cn2c(-c3ccccc3)cc(C(C)=O)c2C)c(OC)c1", "Potency": "inconclusive [activator, single point]"}
{"molecule": "CCCCn1nc2cc(C(=O)N(CC)c3ccc(OC)cc3)ccc2c1OCC", "Potency": "inconclusive [activator, full curve, poor fit]"}
{"molecule": "CC(C(=O)NC1CCCC1)N(C(=O)c1ccc(-c2ccccc2)[nH]1)c1ccccc1F", "note": "(stereo not given)", "Potency": "inconclusive [activator, single point]"}
{"molecule": "O=C(NC(c1ccc(Cl)cc1)c1cc(Cl)c2cccnc2c1O)c1cccnc1", "note": "(stereo not given)", "Potency": "active: 14.6 µM"}
{"molecule": "COc1ccc(NC2=Nc3cccc4cccc2c34)cc1", "Potency": "inactive"}
{"molecule": "Cc1cc(N2CCN(C)CC2)nc2ccc(NC(=S)NCCN3CCc4ccccc4C3)cc12", "Potency": "inconclusive [activator, full curve]"}
{"molecule": "COc1ccc(S(=O)(=O)Nc2ccc(-c3ccc4nncn4n3)cc2)c(OC)c1", "Potency": "inconclusive [activator, partial curve, poor fit]"}
{"molecule": "CNC(=O)/C(C#N)=C/c1c(N2CCN(c3ccc(OC)cc3)CC2)nc2c(C)cccn2c1=O", "Potency": "active: 20.6 µM"}
{"molecule": "O=C(Nc1ccc2c(c1)OCO2)C(=O)c1c[nH]c2ccccc12", "Potency": "inactive"}
{"molecule": "CC[n+]1c(/C=C2\\C=C(C)CC(C)(C)C2)sc2ccccc21", "Potency": "inconclusive [activator, single point]"}
{"molecule": "O=C(CN(c1ccc(F)cc1)S(=O)(=O)c1ccccc1)Nc1ccccc1C(=O)O", "Potency": "inactive"}
{"molecule": "CCc1nnc(NC(=O)c2oc3ccc(Br)cc3c2C)s1", "Potency": "active: 20.6 µM"}
{"molecule": "COc1ccc2nc3oc(C(=O)N4CCN(c5ccccc5F)CC4)cc3cc2c1", "Potency": "inconclusive [activator, partial curve, poor fit]"}
{"molecule": "CC(=O)C1=C(O)C(=O)N(Cc2ccccc2)C1c1cccs1", "note": "(stereo not given)", "Potency": "inconclusive [activator, single point]"}
{"molecule": "CCC(C)Sc1cccc(-c2nc3ccc(Cl)cn3c2NCc2ccccc2)c1", "note": "(stereo not given)", "Potency": "inconclusive [activator, partial curve, poor fit]"}
{"molecule": "O=C(Cc1ccsc1)NNC(=O)c1ccccc1O", "Potency": "inactive"}
{"molecule": "CCCCn1cnc2c(Sc3c([N+](=O)[O-])ncn3C)nc(N)nc21", "Potency": "inconclusive [activator, single point]"}
